Results taken from a collection of fitness landscapes (doi:10.1016/j.celrep.2020.107928).
In all, about 81,000 sequences were measured (“one-hybrid fitness for binding parS DNA”: median about -0.17, highest 2% from about 0.51 on). The list shows a part of the results.

B1: Caulobacter ParB omega fusion; a variant is named by its letters at X, in order, B8GW30 (parent)
chain: MESVVVGEPGMSEGRRGLGRGLSALLGEVDAAPAQAPGEQLGGSREAPIEILQRNPDQPRRTFREEDLEDLSNSIREKGVLQPILVRPSPDTAGEYQIVAGERAWRAAQRAGLKTVPIMVRELDDLAVLEIGIIENVQRADLNVLEEALSYKVLMEKFERTQENIAQTIGKSXSHVANXMRLLXLPDEVQSYLVSGELTAXHARAIAAAADPVALAKQIIEGGLSVRETEALARKAPNLSAGKSKGGRPPRVKDTDTQALESDLSSVLGLDVSIDHRGSTGTLTITYATLEQLDDLCNRLTRGI

Variants of: B1
Experiment: one-hybrid fitness for binding parS DNA (scaled: cognate 1, non-cognate 0); higher = stronger binding
Settings: with parS DNA site
Summary of the method: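 Fitness here means the log change in variant-to-wild-type read ratio between plasmids sequenced before and after selection. That scale was set so cognate equals 1 and non-cognate equals 0. The selection was a bacterial one-hybrid screen of Caulobacter ParB libraries, four specificity codons randomised, in E. coli USO carrying a HIS3 reporter with the site 19 bp from the promoter, grown 48 hours at 37°C on M9-minus-histidine with 0.1 mM IPTG and 5 mM 3-AT.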

| Variant | one-hybrid fitness for binding parS DNA |
| --- | --- |
| TREL | ≤ 0.2 |
| RTWS | 1.05 |
| YASR | ≤ 0.2 |
| WTHR | ≤ 0.2 |
| QTCT | ≤ 0.2 |
| HRSP | ≤ 0.2 |
| PERF | ≤ 0.2 |
| FHHK | ≤ 0.2 |
| PFEV | ≤ 0.2 |
| HPFP | ≤ 0.2 |
| WVTT | ≤ 0.2 |
| KCHS | ≤ 0.2 |
| QGVR | ≤ 0.2 |
| LVYW | ≤ 0.2 |
| SCAC | ≤ 0.2 |
| QHWL | ≤ 0.2 |
| LMVF | ≤ 0.2 |
| HENW | ≤ 0.2 |
| GPIR | ≤ 0.2 |
| QAYS | ≤ 0.2 |
| LSLD | ≤ 0.2 |
| TGEC | ≤ 0.2 |
| WQHR | ≤ 0.2 |
| QREF | ≤ 0.2 |

| Variant | one-hybrid fitness for binding parS DNA |
| --- | --- |
| YVPL | ≤ 0.2 |
| LAAS | ≤ 0.2 |
| GRRN | ≤ 0.2 |
| RLWV | ≤ 0.2 |
| DLPL | ≤ 0.2 |
| QSWD | ≤ 0.2 |
| LNTL | ≤ 0.2 |
| RDRL | ≤ 0.2 |
| NEHI | ≤ 0.2 |
| AQYT | ≤ 0.2 |
| KTSA | ≤ 0.2 |
| MRCC | ≤ 0.2 |
| PWAA | ≤ 0.2 |
| PYKH | ≤ 0.2 |
| KSFT | ≤ 0.2 |
| WEIT | ≤ 0.2 |
| ICHG | ≤ 0.2 |
| NWQY | ≤ 0.2 |
| APKW | ≤ 0.2 |
| NTSK | ≤ 0.2 |
| IYPT | ≤ 0.2 |
| EYSR | ≤ 0.2 |
| THTA | ≤ 0.2 |
| FRPR | ≤ 0.2 |

| Variant | one-hybrid fitness for binding parS DNA |
| --- | --- |
| NRAY | ≤ 0.2 |
| QRWM | ≤ 0.2 |
| AMFA | ≤ 0.2 |
| AWTC | ≤ 0.2 |
| WTVP | ≤ 0.2 |
| HNMP | ≤ 0.2 |
| GMHF | ≤ 0.2 |
| YWKN | 0.322 |
| RNRK | ≤ 0.2 |
| ERPS | ≤ 0.2 |
| YPKA | ≤ 0.2 |
| RIFL | ≤ 0.2 |
| LTYI | ≤ 0.2 |
| SSVS | ≤ 0.2 |
| PGPL | ≤ 0.2 |
| EDLT | ≤ 0.2 |
| GQVY | ≤ 0.2 |
| GHCC | ≤ 0.2 |
| SWWS | ≤ 0.2 |
| FALT | ≤ 0.2 |
| YFSM | ≤ 0.2 |
| ATGG | ≤ 0.2 |
| ADKC | ≤ 0.2 |
| LKCH | ≤ 0.2 |

| Variant | one-hybrid fitness for binding parS DNA |
| --- | --- |
| ANTC | ≤ 0.2 |
| TETY | ≤ 0.2 |
| YINT | ≤ 0.2 |
| YGPL | ≤ 0.2 |
| GIER | ≤ 0.2 |
| PNKA | ≤ 0.2 |
| PAHR | ≤ 0.2 |
| ASSM | ≤ 0.2 |
| RERW | ≤ 0.2 |
| GPCS | ≤ 0.2 |
| KSSG | ≤ 0.2 |
| DWTV | ≤ 0.2 |
| LNCS | ≤ 0.2 |
| QCRK | ≤ 0.2 |
| ARES | ≤ 0.2 |
| NFKR | ≤ 0.2 |
| TSVL | ≤ 0.2 |
| HMER | ≤ 0.2 |
| PSAQ | ≤ 0.2 |
| CQFG | ≤ 0.2 |
| QGNH | ≤ 0.2 |
| QVPF | ≤ 0.2 |
| LVTK | ≤ 0.2 |
| PFKL | ≤ 0.2 |

| Variant | one-hybrid fitness for binding parS DNA |
| --- | --- |
| FMVS | ≤ 0.2 |
| LVHE | ≤ 0.2 |
| RRTQ | ≤ 0.2 |
| NHEL | ≤ 0.2 |
| SPTA | ≤ 0.2 |
| ITPW | ≤ 0.2 |
| STCD | ≤ 0.2 |
| RQAG | 1 |
| RKRP | ≤ 0.2 |
| RHWK | ≤ 0.2 |
| LGQH | ≤ 0.2 |
| DFVC | ≤ 0.2 |
| CTHT | ≤ 0.2 |
| NPKR | ≤ 0.2 |
| FGDR | ≤ 0.2 |
| STGW | ≤ 0.2 |
| RVDE | ≤ 0.2 |
| SNRS | ≤ 0.2 |
| NTAY | ≤ 0.2 |
| RIHN | 0.463 |
| QNCT | ≤ 0.2 |
| QQMC | ≤ 0.2 |
| SFNT | ≤ 0.2 |
| VSVR | ≤ 0.2 |

| Variant | one-hybrid fitness for binding parS DNA |
| --- | --- |
| IHPK | ≤ 0.2 |
| LMPL | ≤ 0.2 |
| HYLR | ≤ 0.2 |
| VNNS | ≤ 0.2 |
| LVVW | ≤ 0.2 |
| SRIL | ≤ 0.2 |
| MLQW | ≤ 0.2 |
| QMKD | ≤ 0.2 |
| DIAI | ≤ 0.2 |
| FTIN | ≤ 0.2 |
| LTQY | ≤ 0.2 |
| VIKG | ≤ 0.2 |
| HSKT | ≤ 0.2 |
| CCPM | ≤ 0.2 |
| HENR | ≤ 0.2 |
| RQWV | ≤ 0.2 |
| ATPL | ≤ 0.2 |
| CSDC | ≤ 0.2 |
| HQFT | ≤ 0.2 |
| VSSR | ≤ 0.2 |
| GRRW | ≤ 0.2 |
| RCKQ | ≤ 0.2 |
| CHTG | ≤ 0.2 |
| PVIN | ≤ 0.2 |

| Variant | one-hybrid fitness for binding parS DNA |
| --- | --- |
| FNTP | ≤ 0.2 |
| TNDL | ≤ 0.2 |
| DVSM | ≤ 0.2 |
| PEWS | ≤ 0.2 |
| ITIR | ≤ 0.2 |
| DCVK | ≤ 0.2 |
| GQRA | ≤ 0.2 |
| RDEQ | ≤ 0.2 |
| ASTF | ≤ 0.2 |
| RLFS | 1.03 |
| QIYL | ≤ 0.2 |
| NYSG | ≤ 0.2 |
| FVHV | ≤ 0.2 |
| LSKD | ≤ 0.2 |
| PTLV | ≤ 0.2 |
| RLHN | 0.442 |
| TPMD | ≤ 0.2 |
| RSRI | ≤ 0.2 |
| GREF | ≤ 0.2 |
| QSHC | ≤ 0.2 |
| QVTS | ≤ 0.2 |
| AKNA | ≤ 0.2 |
| QNYS | ≤ 0.2 |
| FSPG | ≤ 0.2 |

| Variant | one-hybrid fitness for binding parS DNA |
| --- | --- |
| CNSC | ≤ 0.2 |
| AWGL | ≤ 0.2 |
| AVDG | ≤ 0.2 |
| PGTV | ≤ 0.2 |
| IIIT | ≤ 0.2 |
| MCKA | ≤ 0.2 |
| DVRD | ≤ 0.2 |
| PCGF | ≤ 0.2 |
| TEPE | ≤ 0.2 |
| GHYG | ≤ 0.2 |
| GTRE | ≤ 0.2 |
| RPDI | ≤ 0.2 |
| TKEC | ≤ 0.2 |
| NASI | ≤ 0.2 |
| RTTK | ≤ 0.2 |
| KQNC | ≤ 0.2 |
| GLER | ≤ 0.2 |
| LSQA | ≤ 0.2 |
| HQHI | ≤ 0.2 |
| FKCG | ≤ 0.2 |
| CETK | ≤ 0.2 |
| QMST | ≤ 0.2 |
| RTLT | 0.936 |
| CLTI | ≤ 0.2 |

| Variant | one-hybrid fitness for binding parS DNA |
| --- | --- |
| TQRA | ≤ 0.2 |
| DLYT | ≤ 0.2 |
| NKKG | ≤ 0.2 |
| DFWG | ≤ 0.2 |
| KRLP | ≤ 0.2 |
| VGHA | ≤ 0.2 |
| LQNF | ≤ 0.2 |
| GPQI | ≤ 0.2 |
| SPEW | ≤ 0.2 |
| FMYL | ≤ 0.2 |
| QRFV | ≤ 0.2 |
| VIKN | ≤ 0.2 |
| MDRW | ≤ 0.2 |
| TVRG | ≤ 0.2 |
| AADC | ≤ 0.2 |
| MTKT | ≤ 0.2 |
| NIHS | ≤ 0.2 |
| MLQR | ≤ 0.2 |
| GVWS | ≤ 0.2 |
| CDIT | ≤ 0.2 |
| ATKG | ≤ 0.2 |
| HLLH | ≤ 0.2 |
| NPAT | ≤ 0.2 |
| PANH | ≤ 0.2 |

| Variant | one-hybrid fitness for binding parS DNA |
| --- | --- |
| VSAF | ≤ 0.2 |
| QLDH | ≤ 0.2 |
| ASEV | ≤ 0.2 |
| RNPH | ≤ 0.2 |
| THPA | ≤ 0.2 |
| HFGS | ≤ 0.2 |
| APGI | ≤ 0.2 |
| SYTY | ≤ 0.2 |
| IEVV | ≤ 0.2 |
| PSCL | ≤ 0.2 |
| VNCL | ≤ 0.2 |
| AHEQ | ≤ 0.2 |
| MKGR | ≤ 0.2 |
| NHYT | ≤ 0.2 |
| CGLC | ≤ 0.2 |
| PPNA | ≤ 0.2 |
| GYSF | ≤ 0.2 |
| DIAG | ≤ 0.2 |
| WDNC | ≤ 0.2 |
| TNPA | ≤ 0.2 |
| GPKS | ≤ 0.2 |
| AFHT | ≤ 0.2 |
| KNLT | ≤ 0.2 |
| MFKE | ≤ 0.2 |

| Variant | one-hybrid fitness for binding parS DNA |
| --- | --- |
| QNFG | ≤ 0.2 |
| MITK | ≤ 0.2 |
| KIFS | ≤ 0.2 |
| EETS | ≤ 0.2 |
| RSWQ | ≤ 0.2 |
| LYEL | ≤ 0.2 |
| AIFN | ≤ 0.2 |
| IPRL | ≤ 0.2 |
| LMRI | ≤ 0.2 |
| FGAE | ≤ 0.2 |
| VYVC | ≤ 0.2 |
| NRRT | ≤ 0.2 |
| DDLM | ≤ 0.2 |
| CAQW | ≤ 0.2 |
| KTCA | ≤ 0.2 |
| NYGG | ≤ 0.2 |
| DDLT | ≤ 0.2 |
| SLDL | ≤ 0.2 |
| NQHL | ≤ 0.2 |
| PFYM | ≤ 0.2 |
| WIFR | ≤ 0.2 |
| VWNT | ≤ 0.2 |
| QWLD | ≤ 0.2 |
| KTLF | ≤ 0.2 |

| Variant | one-hybrid fitness for binding parS DNA |
| --- | --- |
| KFTK | ≤ 0.2 |
| TTAG | ≤ 0.2 |
| MSKG | ≤ 0.2 |
| PIPG | ≤ 0.2 |
| KYDG | ≤ 0.2 |
| HMGT | ≤ 0.2 |
| NANT | ≤ 0.2 |
| ELQT | ≤ 0.2 |
| RNEA | 0.253 |
| TTYY | ≤ 0.2 |
| ICTY | ≤ 0.2 |
| KRVD | ≤ 0.2 |
| PFAL | ≤ 0.2 |
| LTVC | ≤ 0.2 |
| RQKR | ≤ 0.2 |
| ARVT | ≤ 0.2 |
| KRCG | ≤ 0.2 |
| SVDS | ≤ 0.2 |
| KHKS | ≤ 0.2 |
| QHAN | ≤ 0.2 |
| VASE | ≤ 0.2 |
| TIQR | ≤ 0.2 |
| CLQY | ≤ 0.2 |
| RKIK | ≤ 0.2 |

| Variant | one-hybrid fitness for binding parS DNA |
| --- | --- |
| LGKK | ≤ 0.2 |
| NHER | ≤ 0.2 |
| WKVT | ≤ 0.2 |
| QHNY | ≤ 0.2 |
| GPQG | ≤ 0.2 |
| RMDW | ≤ 0.2 |
| AVKR | ≤ 0.2 |
| AQNT | ≤ 0.2 |
| CLHG | ≤ 0.2 |
| YGRG | ≤ 0.2 |
| CDSD | ≤ 0.2 |
| HGAE | ≤ 0.2 |
| NSNG | ≤ 0.2 |
| KCRV | ≤ 0.2 |
| MLTC | ≤ 0.2 |
| TMGW | ≤ 0.2 |
| RCSQ | ≤ 0.2 |
| TNAT | ≤ 0.2 |
